Assay results as given in the supplement of paper PMC10037445.
± gives the standard deviation of the averaged measurements. Whole data set: some 2,900 compounds, median “NF-kB SEAP reporter activity, fold change vs agonist alone” near 0.99, cut for the highest 2% near 2.6. The list shows a part of the results.

What was measured:
[1] = system: RAW-Dual; assay: NF-kB SEAP reporter activity, fold change vs agonist alone; cytotoxicity flag (confluency mask): not cytotoxic; higher = enhanced NF-kB activity
Procedure, shortened: (§1)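 Supernatant from RAW-Dual macrophages was read after 20 hours for IRF by QuantiLuc luminescence and for NF-κB by QuantiBlue absorbance at 620 nm. The cells (50,000 cells/well in DMEM, 384-well plates, 37 °C, 5% CO2) had received 50 nL of library stock by pin tool and, 1 h later, a PRR agonist. Reporter activity is expressed relative to agonist-alone wells as fold change, and wells were flagged cytotoxic if IncuCyte confluency was under 70% of agonist controls in both mask sets.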

[2] = system: RAW-Dual; assay: NF-kB SEAP reporter activity, fold change vs agonist alone; higher = enhanced NF-kB activity; conditions: library stock concentration (final ~1000-fold dilution): 10 mM
Procedure, shortened: as §1

[3] = system: RAW-Dual; assay: NF-kB SEAP reporter activity, fold change vs agonist alone; cytotoxicity flag (confluency mask): cytotoxic (confluency <70% of control); higher = enhanced NF-kB activity
Procedure, shortened: as §1

[4] = agonist: ODN 1826 (TLR9) 0.5 ug/mL
[5] = agonist: Pam2CSK4 (TLR2/6) 0.1 ug/mL
[6] = agonist: Pam3CSK4 (TLR2/1) 0.1 ug/mL
[7] = cytotoxicity flag (confluency mask): not cytotoxic, agonist: Imiquimod (TLR7) […]
[8] = cytotoxicity flag (confluency mask): not cytotoxic, agonist: MPLA (TLR4) […]
[9] = cytotoxicity flag (confluency mask): cytotoxic (confluency <70% of control), agonist: MPLA (TLR4) […]

CC(=O)OC1CC/C(C)=C/CC/C(C)=C/CC2(C(C)C)CCC1(C)O2 (stereo unspecified) (library stock concentration (final ~1000-fold dilution): 10 mM)
NF-kB SEAP reporter activity ([1]; agonist: LPS (TLR4) 0.1 ug/mL): 1.04 ± 0.06 | NF-kB SEAP reporter activity [1, 4]: 0.72 ± 0.031 | NF-kB SEAP reporter activity [1, 5]: 0.933 ± 0.011 | NF-kB SEAP reporter activity [1, 6]: 1.23 ± 0.23

CC(=O)OC1CC/C(C)=C/CC/C(C)=C/CC2(C(C)C)CCC1(C)O2 (stereo unspecified)
NF-kB SEAP reporter activity [2, 7]: 0.8118 ± 0.0079 | NF-kB SEAP reporter activity [2, 8]: 1.05 ± 0.021

CCC(F)(F)c1cc(N2CCC(S(C)(=O)=O)CC2)nc2sc(C(N)=O)c(N)c12 (library stock concentration (final ~1000-fold dilution): 10 mM)
NF-kB SEAP reporter activity ([1]; agonist: LPS (TLR4) 0.1 ug/mL): 0.328 | NF-kB SEAP reporter activity [1, 4]: 0.405 | NF-kB SEAP reporter activity [1, 5]: 0.128 | NF-kB SEAP reporter activity [1, 6]: 0.226

CCC(F)(F)c1cc(N2CCC(S(C)(=O)=O)CC2)nc2sc(C(N)=O)c(N)c12
NF-kB SEAP reporter activity [2, 7]: 0.658 | NF-kB SEAP reporter activity [2, 8]: 0.398

Cc1cn(C2OC(CO)C(O)C2F)c(=O)[nH]c1=O (stereo unspecified) (library stock concentration (final ~1000-fold dilution): 10 mM)
NF-kB SEAP reporter activity ([1]; agonist: LPS (TLR4) 0.1 ug/mL): 1.04 | NF-kB SEAP reporter activity [1, 4]: 1.03 | NF-kB SEAP reporter activity [1, 5]: 1.15 | NF-kB SEAP reporter activity [1, 6]: 1.27

Cc1cn(C2OC(CO)C(O)C2F)c(=O)[nH]c1=O (stereo unspecified)
NF-kB SEAP reporter activity [2, 7]: 1.04 | NF-kB SEAP reporter activity [2, 8]: 1.06

CC(=O)N1CCN(CCOc2ccc(C3CCN(C4=Nn5c(nnc5C(F)(F)F)CC4)CC3)cc2)CC1 (library stock concentration (final ~1000-fold dilution): 10 mM)
NF-kB SEAP reporter activity ([3]; agonist: LPS (TLR4) 0.1 ug/mL): 2.42 | NF-kB SEAP reporter activity [3, 4]: 1.81 | NF-kB SEAP reporter activity [3, 5]: 1.04 | NF-kB SEAP reporter activity [3, 6]: 1.3

CC(=O)N1CCN(CCOc2ccc(C3CCN(C4=Nn5c(nnc5C(F)(F)F)CC4)CC3)cc2)CC1
NF-kB SEAP reporter activity ([2]; cytotoxicity flag (confluency mask): cytotoxic (confluency <70% of control), agonist: Imiquimod (TLR7) […]): 2.1 | NF-kB SEAP reporter activity [2, 9]: 2.22

O=C(O)c1ccc(/C=C2/SC(=S)N(c3cccc(C(F)(F)F)c3)C2=O)cc1 (library stock concentration (final ~1000-fold dilution): 10 mM)
NF-kB SEAP reporter activity ([1]; agonist: LPS (TLR4) 0.1 ug/mL): 0.668 | NF-kB SEAP reporter activity [1, 4]: 0.623 | NF-kB SEAP reporter activity [1, 5]: 0.845 | NF-kB SEAP reporter activity [1, 6]: 0.605

O=C(O)c1ccc(/C=C2/SC(=S)N(c3cccc(C(F)(F)F)c3)C2=O)cc1
NF-kB SEAP reporter activity [2, 7]: 0.683 | NF-kB SEAP reporter activity [2, 8]: 0.827

Cn1cc(C=C2C(=O)Nc3cccnc32)c2ccccc21 (library stock concentration (final ~1000-fold dilution): 10 mM)
NF-kB SEAP reporter activity ([1]; agonist: LPS (TLR4) 0.1 ug/mL): 0.961 | NF-kB SEAP reporter activity [1, 4]: 0.793 | NF-kB SEAP reporter activity [1, 5]: 0.463 | NF-kB SEAP reporter activity [1, 6]: 0.619

Cn1cc(C=C2C(=O)Nc3cccnc32)c2ccccc21
NF-kB SEAP reporter activity [2, 7]: 0.959 | NF-kB SEAP reporter activity [2, 8]: 1.19

O=c1c2cc(O)c(O)cc2oc2cc(O)c([C@@H]3O[C@H](CO)[C@@H](O)[C@H](O)[C@H]3O)c(O)c12
NF-kB SEAP reporter activity [2, 7]: 0.937 | NF-kB SEAP reporter activity [2, 8]: 1.02

O=c1c2cc(O)c(O)cc2oc2cc(O)c([C@@H]3O[C@H](CO)[C@@H](O)[C@H](O)[C@H]3O)c(O)c12 (library stock concentration (final ~1000-fold dilution): 10 mM)
NF-kB SEAP reporter activity ([1]; agonist: LPS (TLR4) 0.1 ug/mL): 1.31 | NF-kB SEAP reporter activity [1, 4]: 1.11 | NF-kB SEAP reporter activity [1, 5]: 1.12 | NF-kB SEAP reporter activity [1, 6]: 0.916

CN1CCN(CCCN2c3ccccc3Sc3ccc(Cl)cc32)CC1.O=C(O)/C=C\C(=O)O.O=C(O)/C=C\C(=O)O (library stock concentration (final ~1000-fold dilution): 10 mM)
NF-kB SEAP reporter activity ([3]; agonist: LPS (TLR4) 0.1 ug/mL): 0.548 | NF-kB SEAP reporter activity [3, 4]: 0.394 | NF-kB SEAP reporter activity [3, 5]: 0.793 | NF-kB SEAP reporter activity [3, 6]: 0.797

CN1CCN(CCCN2c3ccccc3Sc3ccc(Cl)cc32)CC1.O=C(O)/C=C\C(=O)O.O=C(O)/C=C\C(=O)O
NF-kB SEAP reporter activity [2, 9]: 1.42

CC(C)n1c(C=CC(O)CC(O)CC(=O)O)c(-c2ccc(F)cc2)c2ccccc21 (stereo unspecified)
NF-kB SEAP reporter activity [2, 7]: 2.45 | NF-kB SEAP reporter activity [2, 8]: 2.14

CC(C)n1c(C=CC(O)CC(O)CC(=O)O)c(-c2ccc(F)cc2)c2ccccc21 (stereo unspecified) (library stock concentration (final ~1000-fold dilution): 10 mM)
NF-kB SEAP reporter activity ([1]; agonist: LPS (TLR4) 0.1 ug/mL): 3.64 | NF-kB SEAP reporter activity [1, 4]: 2.92 | NF-kB SEAP reporter activity [1, 5]: 2.13 | NF-kB SEAP reporter activity [1, 6]: 3.38

COc1cc(Nc2ncc(F)c(Nc3ccc4c(n3)N(COP(=O)(O)O)C(=O)C(C)(C)O4)n2)cc(OC)c1OC (library stock concentration (final ~1000-fold dilution): 10 mM)
NF-kB SEAP reporter activity ([1]; agonist: LPS (TLR4) 0.1 ug/mL): 0.47 | NF-kB SEAP reporter activity [1, 4]: 1.02 | NF-kB SEAP reporter activity [1, 5]: 0.192 | NF-kB SEAP reporter activity [1, 6]: 0.787

COc1cc(Nc2ncc(F)c(Nc3ccc4c(n3)N(COP(=O)(O)O)C(=O)C(C)(C)O4)n2)cc(OC)c1OC
NF-kB SEAP reporter activity [2, 7]: 1.06 | NF-kB SEAP reporter activity [2, 8]: 1.21

CC1(O)CC(c2nc(-c3ccc4ccc(-c5ccccc5)nc4c3)c3c(N)nccn23)C1 (stereo unspecified)
NF-kB SEAP reporter activity [2, 7]: 1.34 | NF-kB SEAP reporter activity [2, 8]: 1.41

CC1(O)CC(c2nc(-c3ccc4ccc(-c5ccccc5)nc4c3)c3c(N)nccn23)C1 (stereo unspecified) (library stock concentration (final ~1000-fold dilution): 10 mM)
NF-kB SEAP reporter activity ([1]; agonist: LPS (TLR4) 0.1 ug/mL): 2.31 | NF-kB SEAP reporter activity [1, 4]: 0.319 | NF-kB SEAP reporter activity [1, 5]: 0.761 | NF-kB SEAP reporter activity [1, 6]: 0.913

CNC(=O)Nc1ccc(-c2nc(N3CC4CCC(C3)O4)c3cnn(C4CCC5(CC4)OCCO5)c3n2)cc1 (library stock concentration (final ~1000-fold dilution): 10 mM)
NF-kB SEAP reporter activity ([1]; agonist: LPS (TLR4) 0.1 ug/mL): 1.44 | NF-kB SEAP reporter activity [1, 4]: 0.918 | NF-kB SEAP reporter activity [1, 5]: 1.08 | NF-kB SEAP reporter activity [1, 6]: 0.709

CNC(=O)Nc1ccc(-c2nc(N3CC4CCC(C3)O4)c3cnn(C4CCC5(CC4)OCCO5)c3n2)cc1
NF-kB SEAP reporter activity [2, 7]: 0.92 | NF-kB SEAP reporter activity [2, 8]: 0.956

CCCCCCCCCCCCCCCCCC[N+](C)(C)C
NF-kB SEAP reporter activity [2, 9]: 1.75

CCCCCCCCCCCCCCCCCC[N+](C)(C)C (library stock concentration (final ~1000-fold dilution): 10 mM)
NF-kB SEAP reporter activity ([3]; agonist: LPS (TLR4) 0.1 ug/mL): 0.996 | NF-kB SEAP reporter activity [3, 4]: 1.37 | NF-kB SEAP reporter activity [3, 5]: 0.699 | NF-kB SEAP reporter activity [3, 6]: 0.534
